# Experimental data published in PubChem BioAssay (Tox21).
# This list was built around the results that the source calls inconclusive (neither active nor inactive); the mix of calls is not that of the screen. For some assays here: Potencies of inconclusive entries are doubtful fits and often do not repeat. Calls of active or inactive are those of the source. Unless noted, calls follow the shape of the dose curve; as a rule, active = well fitted curve in the direction sought with a large enough effect in the repeat runs; inconclusive = weak or mixed curves; inactive = no such curve, though single readings can be large; an effect the other way counts as inactive or inconclusive.
# What was measured:
# [1] = qHTS assay for small molecules that induce genotoxicity in human embryonic kidney cells expressing luciferase-tagged ATAD5 - cell viability (AID 651634; calls by dose curve; also: potency is read from the fitted curve at half-maximal effect; nearly all actives have a fitted effect of over 25% in size)
# Procedure, shortened: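 Cytotoxicity counterscreen in HEK293T cells bearing an ATAD5-luciferase reporter: live-cell protease activity measured by CellTiter-Fluor fluorescence after 15.5 hr compound exposure.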
# [2] = qHTS assay for small molecule disruptors of the mitochondrial membrane potential (AID 720635); settings: HepG2 mitochondrial membrane potential, Mito-MPS dye ratio; ratio activity, negative = MMP loss: at 83.2 µM (top of the series) unless noted; also: potency is read from the fitted curve at half-maximal effect
# Procedure, shortened: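 HepG2 cells (2,000/well) attached overnight at 37C, then took compound for 1 hr at 37C, 5% CO2. Mito-MPS dye was added for 30 min; fluorescence was read at 490/535 nm (monomers) and 540/590 nm (aggregates).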
# [3] = qHTS assay to identify small molecule antagonists of the thyroid receptor (TR) signaling pathway - cell viability counter screen (AID 743064); settings: GH3.TRE-Luc viability, CellTiter-Fluor, 24 h; activity change, negative = cytotoxic: at 70.3 µM (top of the series) unless noted; also: nearly all actives have a fitted effect of over 50% in size; also: potency is read from the fitted curve at half-maximal effect; as to activity change, negative = cytotoxic: % is scaled to controls: 0 for no effect and ±100 for the full control effect
# Procedure, shortened: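 Viability of T3-stimulated (1 nM final) GH3.TRE-Luc cells is measured by CellTiter-Fluor fluorescence after 23.5 h compound exposure at 37 °C plus 30 min reagent incubation.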
# [4] = qHTS assay to identify aromatase inhibitors - cell viability counter screen (AID 743084); settings: MCF-7 aro ERE viability, CellTiter-Fluor, 24 h; activity change, negative = cytotoxicity: at 70.3 µM (top of the series) unless noted;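 also: cells stimulated with testosterone during compound exposure; potency is read from the fitted curve at half-maximal effect; nearly all actives have a fitted effect of over 55% in size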
# [5] = qHTS assay to identify small molecule that activate the aryl hydrocarbon receptor (AhR) signaling pathway - cell viability counter screen (AID 743086); also: nearly all actives have a fitted effect of over 45% in size; also: potency is read from the fitted curve at half-maximal effect
# Procedure, shortened: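 HepG2-AhR-luc (HG2L7.5c1) cells, 4000/well, were preincubated 5 h at 37C, exposed to compound in qHTS format for 24 hr at 37C, then given CellTiter-Fluor for 30 min; viability was read as fluorescence in the reporter wells.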
# [6] = molecular target: Nuclear receptor subfamily 1 group I member 2 (Rattus norvegicus) (UniProt Q9R1A7); test: Rat pregnane X receptor (rPXR) activation by small molecules, qHTS assay (AID 1346983); settings: rPXR luciferase reporter cells, One-Glo luminescence, 24 h; max activation: hits give high values; also: nearly all actives have a fitted effect of over 20% in size; also: potency is read from the fitted curve at half-maximal effect; as to max activation: % is scaled to controls: 0 for no effect and ±100 for the full control effect
# Procedure, shortened: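 Cell-based rPXR luciferase reporter assay, 2,000 cells per well, rested 5hr at 37 C before compound addition in DMSO, then 24 hr at 37 C. One-Glo reagent was added and luminescence read after 30 min at room temperature.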
# [7] = qHTS assay for small molecules that induce genotoxicity in human embryonic kidney cells expressing luciferase-tagged ATAD5 (AID 651632); also: potency is read from the fitted curve at half-maximal effect; nearly all actives have a fitted effect of over 15% in size
# Procedure, shortened: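 Increased luciferase signal from ATAD5-tagged reporter cells indicates DNA-damage-driven ATAD5 induction. HEK293T cells are treated for 16 hr at 37C before detection with Amplite.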
# [8] = qHTS assay for identifying genotoxic compounds that show differential cytotoxicity against isogenic chicken DT40 cell lines with known DNA damage response pathways - Rev3 mutant cell line (AID 743014); settings: chicken DT40 Rev3-/- viability, CellTiter-Glo, 40 h; activity, negative = cytotoxicity: at 68.4 µM (top of the series) unless noted; also: potency is read from the fitted curve at half-maximal effect; nearly all actives have a fitted effect of over 55% in size
# [9] = qHTS assay for identifying genotoxic compounds that show differential cytotoxicity against isogenic chicken DT40 cell lines with known DNA damage response pathways - Rad54/Ku70 mutant cell line (AID 743015); settings: DT40 Rad54/Ku70 mutant viability, CellTiter-Glo, 40 h; activity change, negative = cytotoxicity: at 66.8 µM (top of the series) unless noted; also: nearly all actives have a fitted effect of over 60% in size; also: potency is read from the fitted curve at half-maximal effect; as to activity change, negative = cytotoxicity: % is scaled to controls: 0 for no effect and ±100 for the full control effect
# [10] = molecular target: Estrogen receptor (Homo sapiens) (UniProt P03372); test: qHTS assay to identify small molecule agonists of the estrogen receptor alpha (ER-alpha) signaling pathway using the BG1 cell line (AID 743079); settings: BG1Luc4E2 cells, ERE-luciferase agonist, 22 h; activation: at 70.3 µM (top of the series) unless noted; also: nearly all actives have a fitted effect of over 20% in size; also: potency is read from the fitted curve at half-maximal effect
# [11] = qHTS assay to identify small molecule antagonists of the estrogen receptor alpha (ER-alpha) signaling pathway using the BG1 cell line (AID 743080; calls by dose curve;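 also: BG1 cells stimulated with 17beta-estradiol alongside compound; nearly all actives have a fitted effect of over 25% in size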; also: potency is read from the fitted curve at half-maximal effect); settings: BG1Luc4E2 ERE-luciferase antagonist mode, luminescence; activity change, negative = inhibition: at 70.3 µM (top of the series) unless noted
# Procedure, shortened: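 Luciferase inhibition measured with ONE-Glo after 30 min at RT in BG1Luc4E2 cells given test compounds and 17beta-estradiol for 21.5 h at 37 C; CellTiter-Fluor viability read in the same wells beforehand.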
# [12] = qHTS assay to identify small molecule antagonists of the estrogen receptor alpha (ER-alpha) signaling pathway using the BG1 cell line - cell viability counter screen (AID 743081); settings: BG1Luc4E2 viability, CellTiter-Fluor, 22 h; activity change, negative = cytotoxicity: at 70.3 µM (top of the series) unless noted;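 also: compound given together with 17beta-estradiol as the ER stimulus; % is scaled to controls: 0 for no effect and ±100 for the full control effect; nearly all actives have a fitted effect of over 45% in size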
# [13] = qHTS assay for small molecule agonists of the p53 signaling pathway - cell viability (AID 651633; calls by dose curve; also: % is scaled to controls: 0 for no effect and ±100 for the full control effect; nearly all actives have a fitted effect of over 30% in size)
# Procedure, shortened: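 p53RE-bla cells, seeded at 4,000 per well and rested 5 h at 37 C/5% CO2, received compounds in DMSO for 16 h at 37 C. CellTiter-Glo was then added, and luminescence was read after 30 min at room temperature to gauge cytotoxicity.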
# [14] = molecular target: Glucocorticoid receptor (Homo sapiens) (UniProt P04150); test: qHTS assay to identify small molecule agonists of the glucocorticoid receptor (GR) signaling pathway (AID 720691; active = well fitted activation curve with a large enough effect in the signal ratio in the repeat runs, not every such curve was filed as active; inconclusive = weak or mixed curves, or effect the other way; inactive = no such curve, though single readings can be large or run the other way; the % refers to the signal ratio; also: potency is read from the fitted curve at half-maximal effect); settings: GR-bla HeLa, beta-lactamase reporter ratio, 18 h; activation: at 62.4 µM (top of the series) unless noted
# Procedure, shortened: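 Agonist mode in a HeLa line carrying a GRE-controlled beta-lactamase reporter. Compounds act for 18 h at 37 C before a 2 h room-temperature FRET substrate step and fluorescence reading.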
# [15] = molecular target: Glucocorticoid receptor (Homo sapiens) (UniProt P04150); test: qHTS assay to identify small molecule antagonists of the glucocorticoid receptor (GR) signaling pathway (AID 720692; active = well fitted inhibition curve with a large enough effect in the signal ratio in the repeat runs, not every such curve was filed as active; inconclusive = weak or mixed curves, or effect the other way; inactive = no such curve, though single readings can be large or run the other way; the % refers to the signal ratio; also: potency is read from the fitted curve at half-maximal effect); settings: GR-bla HeLa, beta-lactamase FRET ratio, dexamethasone-stimulated, 18 h; activity change, negative = inhibition: at 58.5 µM (top of the series) unless noted
# Procedure, shortened: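 Cells plated, rested 4 h at 37 C/5% CO2; compounds in DMSO pin-transferred; dexamethasone added to 5 nM final; 18 h at 37 C; B/G FRET substrate added, 2 h room temperature; fluorescence measured.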
# [16] = qHTS assay for identifying genotoxic compounds that show differential cytotoxicity against isogenic chicken DT40 cell lines with known DNA damage response pathways - wild type cell line (AID 743012); settings: DT40 wild type chicken cells viability, CellTiter-Glo, 40 h; activity change, negative = cytotoxicity: at 68.4 µM (top of the series) unless noted; also: potency is read from the fitted curve at half-maximal effect; nearly all actives have a fitted effect of over 60% in size
# Procedure, shortened: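 Cells (DT40 wild type, 300/well) are treated with DMSO-dissolved compounds after a ~0.5 h pre-incubation and kept 40 h at 37 C/5% CO2. Viability is then measured by CellTiter-Glo luminescence following 30 min at room temperature.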
# [17] = molecular target: Androgen receptor (Homo sapiens) (UniProt P10275); test: qHTS assay to identify small molecule agonists of the androgen receptor (AR) signaling pathway (AID 743036; active = well fitted activation curve with a large enough effect in the signal ratio in the repeat runs, with a control signal flat, not every such curve was filed as active; inconclusive = weak or mixed curves, or effect the other way; inactive = no such curve, though single readings can be large or run the other way; the % refers to the signal ratio; also: potency is read from the fitted curve at half-maximal effect); settings: HEK293 AR-UAS-bla GripTite, beta-lactamase FRET ratio, 16 h; activation: at 62.4 µM (top of the series) unless noted
# Procedure, shortened: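 Screening used 2,000 AR-bla HEK293 cells per well, treated 16 h at 37C with test compounds in DMSO alongside positive and DMSO-only controls; beta-lactamase activity was then read by LiveBLAzer B/G FRET fluorescence after 2 h at room temperature.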
# [18] = molecular target: Estrogen receptor (Homo sapiens) (UniProt P03372); test: qHTS assay to identify small molecule antagonists of the estrogen receptor alpha (ER-alpha) signaling pathway (AID 743069; active = well fitted curve in the direction sought with a large enough effect in the signal ratio in the repeat runs, not every such curve was filed as active; inconclusive = weak or mixed curves, or effect the other way; inactive = no such curve, though single readings can be large or run the other way; the % refers to the signal ratio; also: % is scaled to controls: 0 for no effect and ±100 for the full control effect); settings: HEK293 ER-alpha-UAS-bla, beta-lactamase ratio, antagonist mode; activity, negative = inhibition: at 69.4 µM (top of the series) unless noted
# Procedure, shortened: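 HEK293 cells stably carrying an ER-alpha-UAS-bla beta-lactamase reporter were pre-cultured overnight in 2% charcoal-stripped FBS medium. Test compounds in DMSO were added together with 17beta-estradiol for 18 hr at 37C. Read-out was fluorescence after 2 hr with LiveBLAzer B/G FRET substrate at room temperature.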
# [19] = molecular target: Nuclear receptor subfamily 1 group I member 2 (Homo sapiens) (UniProt O75469); test: CYP3A4 induction through human pregnane X receptor (PXR) by small molecules, qHTS assay (AID 1346984); settings: DPX-2 HepG2 PXR, CYP3A4-luciferin luminescence, 24 h; activation: at 46.1 µM (top of the series) unless noted; also: potency is read from the fitted curve at half-maximal effect; nearly all actives have a fitted effect of over 40% in size
# Procedure, shortened: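 Steps: seed DPX-2 cells, 5 hr at 37C; pin-transfer compounds; 24 hr at 37C; add Luciferin-IPA (3uM final), 3 hr at 37C; add One-Glo, 30 min RT; read luminescence.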
# [20] = qHTS assay for small molecule agonists of the p53 signaling pathway (AID 651631; calls by dose curve; also: potency is read from the fitted curve at half-maximal effect; nearly all actives have a fitted effect of over 15% in size); settings: HCT-116 p53RE-bla reporter, beta-lactamase FRET ratio, 16 h; activation: at 73.3 µM (top of the series) unless noted
# Procedure, shortened: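 Testing took place in human colorectal HCT-116 cells with stable p53RE-driven beta-lactamase. After 16 h of compound exposure at 37 °C, a FRET substrate was added and fluorescence recorded 2 h later.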
# [21] = qHTS assay for small molecule disruptors of the mitochondrial membrane potential - cell viability (AID 720634; calls by dose curve;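 also: human HepG2 liver cancer cells; % is scaled to controls: 0 for no effect and ±100 for the full control effect; nearly all actives have a fitted effect of over 20% in size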)
# Procedure, shortened: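 After overnight attachment at 37 C, HepG2 cells received compound or DMSO vehicle for 1 hr. Viability is then taken from ATP-driven luminescence following a 30 min room-temperature CellTiter-Glo step.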
# [22] = qHTS assay to identify small molecule antagonists of the estrogen receptor alpha (ER-alpha) signaling pathway - cell viability counter screen (AID 743074; calls by dose curve; also: % is scaled to controls: 0 for no effect and ±100 for the full control effect; nearly all actives have a fitted effect of over 45% in size)
# Tags tell the direction and shape of the fitted curve or compound fluorescence and quenching.
# Chain of UniProt P04150 (P04150 whole entry, looked up): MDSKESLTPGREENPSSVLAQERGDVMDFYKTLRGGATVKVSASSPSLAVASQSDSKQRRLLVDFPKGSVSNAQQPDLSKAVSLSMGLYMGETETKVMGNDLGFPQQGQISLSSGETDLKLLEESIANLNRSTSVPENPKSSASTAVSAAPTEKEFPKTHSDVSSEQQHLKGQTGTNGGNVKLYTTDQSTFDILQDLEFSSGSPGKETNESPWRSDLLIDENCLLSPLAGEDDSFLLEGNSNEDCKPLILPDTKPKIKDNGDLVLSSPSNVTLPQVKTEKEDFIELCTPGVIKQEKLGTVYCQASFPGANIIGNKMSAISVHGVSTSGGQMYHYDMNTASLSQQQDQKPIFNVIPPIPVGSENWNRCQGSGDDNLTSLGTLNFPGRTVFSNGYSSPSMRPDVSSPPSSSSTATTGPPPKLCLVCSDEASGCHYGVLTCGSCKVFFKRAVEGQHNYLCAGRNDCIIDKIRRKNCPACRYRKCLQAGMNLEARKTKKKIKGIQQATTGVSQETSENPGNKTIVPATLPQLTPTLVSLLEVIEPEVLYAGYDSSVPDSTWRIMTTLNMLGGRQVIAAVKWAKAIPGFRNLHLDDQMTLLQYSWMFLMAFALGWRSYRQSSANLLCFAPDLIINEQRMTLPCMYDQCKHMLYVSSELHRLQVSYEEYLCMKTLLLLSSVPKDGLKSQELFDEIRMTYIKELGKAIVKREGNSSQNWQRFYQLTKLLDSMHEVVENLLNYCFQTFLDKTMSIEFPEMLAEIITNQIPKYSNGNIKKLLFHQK
# Chain of UniProt P03372 (P03372 whole entry, looked up): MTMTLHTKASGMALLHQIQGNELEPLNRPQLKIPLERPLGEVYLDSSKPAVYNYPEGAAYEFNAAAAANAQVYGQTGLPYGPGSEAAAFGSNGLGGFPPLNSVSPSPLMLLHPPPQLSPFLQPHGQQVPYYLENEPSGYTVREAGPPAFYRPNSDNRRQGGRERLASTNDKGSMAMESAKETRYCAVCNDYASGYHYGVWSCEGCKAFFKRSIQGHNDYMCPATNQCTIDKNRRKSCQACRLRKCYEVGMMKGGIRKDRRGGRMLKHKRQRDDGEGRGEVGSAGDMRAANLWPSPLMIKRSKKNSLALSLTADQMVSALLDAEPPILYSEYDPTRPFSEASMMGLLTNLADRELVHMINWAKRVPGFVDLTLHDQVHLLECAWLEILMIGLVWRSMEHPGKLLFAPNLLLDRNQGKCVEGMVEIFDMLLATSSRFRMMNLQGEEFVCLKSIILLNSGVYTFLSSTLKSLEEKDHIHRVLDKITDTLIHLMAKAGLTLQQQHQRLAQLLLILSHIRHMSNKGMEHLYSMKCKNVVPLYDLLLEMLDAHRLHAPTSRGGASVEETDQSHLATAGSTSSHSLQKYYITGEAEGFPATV
# Chain of UniProt Q9R1A7 (Q9R1A7 whole entry, looked up): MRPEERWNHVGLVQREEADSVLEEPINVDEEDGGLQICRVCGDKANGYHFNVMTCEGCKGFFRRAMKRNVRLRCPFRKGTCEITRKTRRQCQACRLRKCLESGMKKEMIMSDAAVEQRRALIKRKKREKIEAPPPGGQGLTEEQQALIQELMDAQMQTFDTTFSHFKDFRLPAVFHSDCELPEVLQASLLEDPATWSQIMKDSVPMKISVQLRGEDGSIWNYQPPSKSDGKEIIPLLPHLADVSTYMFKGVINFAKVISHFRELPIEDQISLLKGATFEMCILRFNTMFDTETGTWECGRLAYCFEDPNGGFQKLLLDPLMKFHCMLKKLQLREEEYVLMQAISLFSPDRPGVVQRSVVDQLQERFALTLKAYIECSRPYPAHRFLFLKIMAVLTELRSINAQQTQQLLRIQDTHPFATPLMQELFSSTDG
# Chain of UniProt P10275 (P10275 whole entry, looked up): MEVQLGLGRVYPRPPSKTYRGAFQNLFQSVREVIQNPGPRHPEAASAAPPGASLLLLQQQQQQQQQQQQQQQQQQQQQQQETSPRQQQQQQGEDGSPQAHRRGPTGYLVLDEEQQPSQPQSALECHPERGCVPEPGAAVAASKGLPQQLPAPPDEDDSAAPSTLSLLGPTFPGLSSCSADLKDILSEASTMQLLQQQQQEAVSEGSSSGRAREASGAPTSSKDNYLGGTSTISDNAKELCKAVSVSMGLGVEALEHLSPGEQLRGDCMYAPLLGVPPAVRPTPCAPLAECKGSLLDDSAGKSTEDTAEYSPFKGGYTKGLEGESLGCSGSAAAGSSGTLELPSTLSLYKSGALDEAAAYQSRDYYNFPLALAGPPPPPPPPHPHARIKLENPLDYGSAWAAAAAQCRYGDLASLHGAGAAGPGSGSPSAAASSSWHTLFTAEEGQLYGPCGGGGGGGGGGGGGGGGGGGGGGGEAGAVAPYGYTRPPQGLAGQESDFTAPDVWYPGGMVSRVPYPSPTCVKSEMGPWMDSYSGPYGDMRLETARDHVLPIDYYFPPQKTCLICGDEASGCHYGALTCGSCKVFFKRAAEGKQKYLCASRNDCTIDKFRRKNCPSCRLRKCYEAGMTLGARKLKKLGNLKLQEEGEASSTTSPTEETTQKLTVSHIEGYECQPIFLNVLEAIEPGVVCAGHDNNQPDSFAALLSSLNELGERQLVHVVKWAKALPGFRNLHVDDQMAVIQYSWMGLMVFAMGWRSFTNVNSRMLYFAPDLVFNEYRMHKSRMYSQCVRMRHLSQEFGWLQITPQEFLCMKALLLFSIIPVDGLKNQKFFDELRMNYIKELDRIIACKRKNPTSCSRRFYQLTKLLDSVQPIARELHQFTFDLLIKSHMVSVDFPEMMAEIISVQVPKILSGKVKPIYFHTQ
structure (smiles),measurement,setting,value
CN1c2cc(O)c(N=NC(N)=O)cc2CC1S(=O)(=O)O (stereo not drawn),Potency,[1],"inconclusive: 47.3 µM [falling, single point]"
same,Potency,[2],"inconclusive: 11.9 µM [activator, single point]"
same,Potency,[3],"inconclusive: 16.8 µM [cytotoxic, partial curve, poor fit]"
same,Potency,[4],"inconclusive: 33.5 µM [cytotoxic, single point]"
same,Potency,[5],"inconclusive: 23.7 µM [falling, partial curve]"
same,max activation,[6],inactive: 0.153%
Nc1nc(NC2CC2)c2ncn([C@@H]3C=C[C@@H](CO)C3)c2n1,Potency,[7],active: 13.3 µM
same,Potency,[8],inconclusive: 33.5 µM [cytotoxic]
same,Potency,[9],inactive
same,Potency,[3],inactive
same,Potency,[10],active: 2.66 µM
same,Potency,[11],"inconclusive: 1.88 µM [rising, full curve, poor fit]"
same,Potency,[12],inactive
same,Potency,[5],inactive
same,Potency,[6],active: 5.01 µM
CCC(=O)OCC(=O)[C@@]1(OC(=O)CC)[C@H](C)C[C@H]2[C@H]3[C@H]([C@@H](O)C[C@@]21C)[C@@]1(C)C=CC(=O)C=C1C[C@H]3Cl,Potency,[13],inactive
same,"ratio activity, negative = MMP loss",[2],inconclusive: 4.34% [at 39.1 µM]
same,Potency,[14],active: 0.0204 µM
same,Potency,[15],"inconclusive: 0.0362 µM [activator, full curve]"
same,Potency,[16],inconclusive: 14.3 µM [cytotoxic]
same,Potency,[9],"inconclusive: 12.7 µM [cytotoxic, single point]"
same,Potency,[17],active: 0.144 µM
same,"activity, negative = inhibition",[18],inconclusive: 21.1% [at 32.6 µM]
same,activation,[10],inconclusive: 2.16% [phenotype inactive] [at 32.5 µM]
same,Potency,[11],"inconclusive: 0.032 µM [rising, full curve]"
same,Potency,[6],active: 3.98 µM
same,Potency,[19],"inconclusive: 6.31 µM [activator, partial curve, poor fit]"
C[C@]12CC[C@@H]3c4ccc(OC(=O)c5ccccc5)cc4CC[C@H]3[C@@H]1CC[C@@H]2O,Potency,[20],inconclusive: 33.5 µM [activator]
same,Potency,[21],inactive
same,Potency,[2],active: 2.98 µM
same,Potency,[15],active: 6.01 µM
same,Potency,[9],"inconclusive: 5.31 µM [cytotoxic, full curve]"
same,Potency,[17],active: 3.38 µM
same,"activity, negative = inhibition",[18],inconclusive: 19.3%
same,Potency,[22],inactive
same,activation,[10],active: 82.8%
same,"activity change, negative = inhibition",[11],inconclusive: -2.2%
same,max activation,[6],inactive: -1.5%
